# From paper PMC4336329 (PLoS ONE, 2015)
# The whole screen tested about 310,000 compounds, of which about 2,200 (0.71%) showed an effect of 50% or more. Effects have a minus sign here. The list shows a part of the results.
# Target: human ether-à-go-go-related gene (hERG) potassium channel (human, UniProt Q12809)
# Experiment: primary screen, population patch clamp on CHO cells stably expressing hERG
# human ether-à-go-go-related gene (hERG) potassium channel, sequence (Q12809 whole entry, looked up): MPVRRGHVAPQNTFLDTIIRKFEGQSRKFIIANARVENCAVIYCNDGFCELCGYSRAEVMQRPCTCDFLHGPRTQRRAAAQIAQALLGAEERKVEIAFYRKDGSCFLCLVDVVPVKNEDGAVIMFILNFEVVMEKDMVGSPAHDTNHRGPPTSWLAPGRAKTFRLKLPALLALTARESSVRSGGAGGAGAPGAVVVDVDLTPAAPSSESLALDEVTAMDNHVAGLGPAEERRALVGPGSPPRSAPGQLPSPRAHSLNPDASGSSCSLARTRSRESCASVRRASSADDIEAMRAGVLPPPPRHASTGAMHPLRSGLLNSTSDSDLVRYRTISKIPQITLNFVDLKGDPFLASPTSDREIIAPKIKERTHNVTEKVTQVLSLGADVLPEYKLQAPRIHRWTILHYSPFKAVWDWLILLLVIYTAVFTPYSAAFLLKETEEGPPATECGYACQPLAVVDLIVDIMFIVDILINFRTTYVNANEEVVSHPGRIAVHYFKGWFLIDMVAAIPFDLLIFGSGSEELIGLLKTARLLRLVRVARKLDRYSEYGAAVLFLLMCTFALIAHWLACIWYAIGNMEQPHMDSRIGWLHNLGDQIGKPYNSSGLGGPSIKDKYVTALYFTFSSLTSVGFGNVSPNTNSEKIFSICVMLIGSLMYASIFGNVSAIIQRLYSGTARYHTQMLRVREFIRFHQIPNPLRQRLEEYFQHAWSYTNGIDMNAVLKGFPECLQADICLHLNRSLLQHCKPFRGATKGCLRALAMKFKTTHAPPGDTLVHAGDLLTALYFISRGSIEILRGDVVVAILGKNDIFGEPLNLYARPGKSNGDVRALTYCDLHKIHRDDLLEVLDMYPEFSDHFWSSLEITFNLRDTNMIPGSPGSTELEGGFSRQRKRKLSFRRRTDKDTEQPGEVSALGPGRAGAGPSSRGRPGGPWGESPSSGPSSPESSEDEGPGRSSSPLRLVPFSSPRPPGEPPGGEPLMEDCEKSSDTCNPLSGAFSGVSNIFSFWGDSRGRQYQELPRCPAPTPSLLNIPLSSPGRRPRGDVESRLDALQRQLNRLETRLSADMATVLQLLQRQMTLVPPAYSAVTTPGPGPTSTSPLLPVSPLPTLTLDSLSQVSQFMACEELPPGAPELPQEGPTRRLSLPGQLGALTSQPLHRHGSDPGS
row,SMILES,"hERG current change (%, negative = inhibition) at 1uM [%]"
1,Cc1ccc(S(=O)(=O)NCC(=O)N(CC(=O)NCc2ccco2)Cc2ccc(F)cc2)cc1,3.49
2,C/C(=N\NC(=O)c1ccccc1)c1ccc(N2CCOCC2)cc1,13.9
3,Cc1onc(-c2c(Cl)cccc2Cl)c1/C(N)=N/OC(=O)C1CC1,11.1
4,CCCCCN(C(=O)CCC(=O)OC(C)C(=O)Nc1cccc(C#N)c1)c1c(N)n(CCCC)c(=O)[nH]c1=O (centres unmarked),25.1
5,Cc1nn(C)c(C)c1CN(Cc1nc(-c2ccc(F)cc2F)oc1C)C1CC1,11
6,CCC1Oc2ccccc2N(CC(=O)NCCCN2CCCCC2C)C1=O (centres unmarked),15.2
7,CCOC(=O)[C@H]1O[C@@H]1C(=O)N[C@@H](CC(C)C)C(=O)NCCC(C)C,22.6
8,CCC(=O)Nc1ccc(NC(=O)CSc2nnnn2-c2ccc(OC)cc2)cc1,14.5
9,CC(=O)c1ccc(OCCCC(=O)NCCc2ccc(C(F)(F)F)cc2)cc1,13.4
10,COc1ccc(OC)c(NC(=O)CCNC(=O)Cn2cnc3ccccc3c2=O)c1,7.44
11,COC(=O)CSc1nnc(-c2ccccn2)n1N,10.9
12,Cc1nc(NC(=O)CC(C)C)sc1-c1csc(Nc2ccc(Cl)cc2)n1,12.5
13,CN1C(=O)/C(=C/c2cn(CC(=O)N3CCCCC3)c3ccccc23)NC1=S,13.6
14,Cc1ccnc(SCC(=O)Nc2sc3c(c2C#N)CCCC3)n1,1.08
15,CCOc1ccc(S(=O)(=O)N(CC)CC)cc1NC(=O)c1ccc(N2CCCC2=O)cc1,29.7
16,CC(C)CN(CC(C)C)CC(O)COc1ccc([N+](=O)[O-])cc1.Cl (centres unmarked),-52.1
17,CCC[C@H](N[C@@H](CCC)[C@H](O)c1ccccc1)[C@H](O)c1ccccc1,9.11
18,CCCc1nnc(NC(=O)c2cc3ccccc3oc2=O)s1,8.79
19,Cn1c(=O)cc(SCC(=O)NCCC2=CCCCC2)c2ccc(Cl)cc21,8.49
20,CC(C)/C=N\NC(=O)CCCCC(=O)N/N=C/C(C)C,13
21,COc1cc(C(C(=O)NC2CCCC2)N(C(=O)c2snc(C(N)=O)c2N)C2CCCC2)cc(OC)c1OC (centres unmarked),14.4
22,Cc1ccc(-c2cc(Cc3ccc(F)cc3)c(=O)[nH]n2)cc1,11.5

row,SMILES,"hERG current change (%, negative = inhibition) at 1uM [%]"
1,CCC(C)NC(=O)CNC(=S)N(Cc1ccc(F)cc1)C1CCCCC1 (centres unmarked),10.8
2,CCCn1c(NC(=O)CCS(=O)(=O)c2ccc(C)cc2)nc2ccccc21,0.756
3,O=C(CCl)N1N=C(c2ccco2)CC1c1ccco1 (centres unmarked),16.4
4,COc1cc(/C=C(/C#N)c2ccc(F)cc2)ccc1Oc1ccc([N+](=O)[O-])cn1,14
5,Cc1cc(C)nc(NC(=NCCc2c[nH]c3ccccc23)NC(=O)Nc2cccc([N+](=O)[O-])c2)n1,11.9
6,CCCC[C@@H]1CN=C(N)N1CCc1cc(C(F)(F)F)cc(C(F)(F)F)c1,1.48
7,Cc1c(C)c2ccc(OCc3ccc(C(=O)O)o3)c(C)c2oc1=O,10
8,COc1ccc(CNC(=O)CSc2nnc3nc(C)cc(C)n23)cc1OC,7.95
9,CC(NC(=O)COc1ccccc1)C(=O)NC1=NCCS1 (centres unmarked),7.47
10,COc1cccc(N(CC(=O)Nc2ccccc2C(=O)N2CCCC2)S(C)(=O)=O)c1,19.6
11,COCOc1ccc(C=O)cc1OCOC,11.5
12,COc1cc([N+](=O)[O-])ccc1NC(=O)Nn1cnnc1,6.77
13,S=c1[nH]nc(COc2ccccc2)n1C1CCCCC1,18.3
14,COc1cccc(N2C(=O)C3CC=C(Cl)CC3C2=O)c1 (centres unmarked),4.16
15,O=C(c1ccc2c(c1)OCCO2)C1CCN(S(=O)(=O)c2ccccc2F)CC1,15.4
16,NC(=S)N1CCCc2ccccc21,5.58
17,CC1CCCCN1S(=O)(=O)c1ccc(C(=O)Nc2nnc(-c3cccs3)o2)cc1 (centres unmarked),9.02
18,CC(C)[C@H](NC(N)=O)C(=O)Nc1ccc(Oc2ccccc2)cc1,10.8
19,CNS(=O)(=O)c1cccc(C(=O)OCC(=O)NCc2ccccc2)c1,3.36
20,CC(=O)Nc1cc[n+](C(C)C(=O)c2ccc(Cl)cc2)cc1.[Cl-] (centres unmarked),19.9
21,COC(=O)CCN(C(=O)c1cc([N+](=O)[O-])cc([N+](=O)[O-])c1)c1ccccn1,6
22,Oc1ccc(Br)cc1-c1nc2cnccn2c1NC1CCCCC1,7.26

row,SMILES,"hERG current change (%, negative = inhibition) at 1uM [%]"
1,COc1ccccc1N1CCN(C(=O)CSc2nnc(NC(=O)C3CCC3)s2)CC1,0.809
2,Cc1ccc(S(=O)(=O)NC(=O)COc2cc(C)ccc2C(C)C)cc1,14.3
3,O=C(O)c1cccc(CSc2n[nH]c(-c3ccc(Cl)cc3Cl)n2)c1,9.09
4,CCn1nc(C)c(CNC(=O)Nc2ccc3c(c2)OCO3)c1C,3.07
5,COCCNC(=O)c1ccc(Cn2c(=S)[nH]c3cc4c(cc3c2=O)OCO4)cc1,10.8
6,COC(=O)c1ccc(/C=C/C(=O)OCC(=O)Nc2ncc(Cl)cc2Cl)cc1,3.6
7,CCOc1ccc(NS(=O)(=O)c2ccc(C(=O)NC3CCN(Cc4ccccc4)CC3)cc2)cc1,16.1
8,Cc1ccc(CNC(=O)CN2C(=O)c3ccccc3S2(=O)=O)cc1,2.59
9,Nn1c(Cc2cccc3ccccc23)nnc1SCc1ccccc1Cl,12.4
10,O=C(C(=O)N1CCN(c2ccccc2)CC1)c1cn(CC(=O)N2CCCCCC2)c2ccccc12,9.13
11,CCCn1c(SCC(=O)Nc2nnc(C)s2)nnc1C1CC1,13.9
12,Cc1ccc(-n2c(SCC(=O)Nc3ncc(Cl)cc3Cl)nc3ccccc32)cc1,15.5
13,O=C(NCC1CCCO1)c1ccc(NC(=O)c2cc(F)c(F)cc2Cl)cc1 (centres unmarked),11.6
14,NC(=O)C1(N2CCCCC2)CCN(C(=S)Nc2ccc(F)c(Cl)c2)CC1,2.55
15,CCN1CCN(c2ncc3c(n2)CC(c2ccc(OC)c(OC)c2)CC3=O)CC1 (centres unmarked),1.28
16,CNc1nc(-c2ccc(OC)cc2)c(-c2ccc(OC)cc2)s1,-1.05
17,Cc1ccc(OCC(=O)N2CCN(C(=O)c3ccco3)CC2)cc1,-9.07
18,O=C(O)COc1ccccc1/C=N/NC(=O)CSc1nc2ccccc2c(=O)n1-c1ccc(Cl)cc1,16.2
19,CC(C)Sc1nc(SCC(=O)NCc2ccco2)c2c3c(sc2n1)COC(C)(C)C3,11.6
20,O=C(c1cc2c(s1)CCCC2)N1CCN(S(=O)(=O)c2ccccc2C(F)(F)F)CC1,12.5
21,CC(C(=O)N(C)C)N1c2cccc3cccc(c23)S1(=O)=O (centres unmarked),13.8
22,Cn1cnc2c1c(=O)[nH]c(=O)n2Cc1ccccc1,12.2

row,SMILES,"hERG current change (%, negative = inhibition) at 1uM [%]"
1,COc1ccccc1C(=O)COC(=O)CCCN=C1NS(=O)(=O)c2ccccc21,16.1
2,CCCCn1c(NCc2ccc3c(c2)OCO3)nc2ccccc21,-14.7
3,CC(=O)Nc1ccc(S(=O)(=O)N2CCC(N3CCCCC3)CC2)cc1,13.6
4,CCN1CCCC1CNS(=O)(=O)c1ccc(C(=O)Nc2ccccc2)cc1 (centres unmarked),4.23
5,O=C(NC(=S)Nc1ccc(F)c([N+](=O)[O-])c1)c1ccccc1F,8.06
6,CCN(C(=O)CCS(=O)(=O)c1ccc(Br)cc1)c1ccc2c(c1)OCO2,-3.71
7,CCOC(=O)CSc1nc2sc3c(c2c(=O)n1C1CCCCC1)CCN(C)C3,-3.63
8,C=CCn1c(CCSCc2ccc(OC)c(C)c2)n[nH]c1=S,15
9,O=C(NC1CCCCC1)c1ccc(CN2CCOCC2)cc1,2.1
10,Cc1ccc(NC(=O)c2cn(CCC#N)nc2-c2ccc3c(c2)OCCO3)c([N+](=O)[O-])c1,-2.98
11,Cc1ccc(S(=O)(=O)N2CCOCC2)cc1C(=O)NCCN1C(=O)S/C(=C\c2ccccc2Cl)C1=O,-0.928
12,Cc1ccc(CS(=O)(=O)c2cn(CC(=O)N3CCOCC3)c3ccccc23)cc1,6.59
13,CN(CC(=O)Nc1ccccc1C(F)(F)F)C(=O)c1ccc2c(=O)n3c(nc2c1)CCC3,0.553
14,COc1ccc2c(n1)Sc1nc3ccccc3nc1N2,18.2
15,CC1CCCN(C(=O)COC(=O)CNC(=O)c2sc3ccccc3c2Cl)C1 (centres unmarked),8.42
16,CC(C)Oc1ccc(C(=O)OCC(=O)NC(=O)NC2CCCC2)cc1,3.28
17,CCC(C)c1ccc(NC(=O)C2CCCN(c3ncccn3)C2)cc1 (centres unmarked),0.615
18,CCN1C(=O)CC(c2ccc(OC(C)C)cc2)C1=O (centres unmarked),9.29
19,CC(=O)c1c(C)[nH]c(C(=O)OCC(=O)Nc2ccccc2Cl)c1C,4.51
20,CN(C)CCNC(=O)CNC(=S)N(Cc1ccccc1)Cc1cccnc1,6.62
